# Source: the supplement of paper PMC8728848
# The list shows a part of the results.
# B1: Siglec-F (Mus musculus), Q920G3 (protein)
# chain: MRWAWLLPLLWAGCLATDGYSLSVTGSVTVQEGLCVFVACQVQYPNSKGPVFGYWFREGANIFSGSPVATNDPQRSVLKEAQGRFYLMGKENSHNCSLDIRDAQKIDTGTYFFRLDGSVKYSFQKSMLSVLVIALTEVPNIQVTSTLVSGNSTKLLCSVPWACEQGTPPIFSWMSSALTSLGHRTTLSSELNLTPRPQDNGTNLTCQVNLPGTGVTVERTQQLSVIYAPQKMTIRVSWGDDTGTKVLQSGASLQIQEGESLSLVCMADSNPPAVLSWERPTQKPFQLSTPAELQLPRAELEDQGKYICQAQNSQGAQTASVSLSIRSLLQLLGPSCSFEGQGLHCSCSSRAWPAPSLRWRLGEGVLEGNSSNGSFTVKSSSAGQWANSSLILSMEFSSNHRLSCEAWSDNRVQRATILLVSGPKVSQAGKSETSRGTVLGAIWGAGLMALLAVCLCLIFFTVKVLRKKSALKVAATKGNHLAKNPASTINSASITSSNIALGYPIQGHLNEPGSQTQKEQPPLATVPDTQKDEPELHYASLSFQGPMPPKPQNTEAMKSVYTEIKIHKC
# Experiments:
# Test in all cases: glycan array binding signal (z-score within array); higher = stronger binding
# Conditions in all cases: glycan notation: IUPAC condensed, linker removed
# [1] = target: Man(a1-3)[Man(a1-6)]Man(b1-4)GlcNAc(b1-4)[Fuc(a1-6)]GlcNAc
# Summary of the method: (§1)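 Negative Z-scores can be read as non-binding. The Z-score is calculated within each array and then averaged across arrays of one protein sequence at different concentrations or buffers and across linkers. Arrays, 3228 in all, were curated from the Consortium for Functional Glycomics database and kept only where the protein sequence was available.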
# Man(a1-6)Man = target: Man(a1-6)Man
# Summary of the method: as §1
# Man(b1-4)GlcNAc = target: Man(b1-4)GlcNAc
# Summary of the method: as §1
# MurNAc(b1-4)GlcNAc = target: MurNAc(b1-4)GlcNAc
# Summary of the method: as §1
# Neu5Ac(a2-3)Gal = target: Neu5Ac(a2-3)Gal
# Summary of the method: as §1
# [2] = target: Neu5Ac(a2-3)Gal(b1-3)GalNAc
# Summary of the method: as §1
# [3] = target: Neu5Ac(a2-3)Gal(b1-3)GalNAc(b1-3)Gal(a1-4)Gal(b1-4)Glc
# Summary of the method: as §1
# [4] = target: Neu5Ac(a2-3)Gal(b1-3)GalNAc(b1-4)Gal(b1-4)Glc
# Summary of the method: as §1
# [5] = target: Neu5Ac(a2-3)Gal(b1-3)GalNAc(b1-4)[Neu5Ac(a2-3)]Gal(b1-4)Glc
# Summary of the method: as §1
# [6] = target: Neu5Ac(a2-3)Gal(b1-3)GalNAc(b1-4)[Neu5Ac(a2-8)Neu5Ac(a2-3)]Gal(b1-4)Glc
# Summary of the method: as §1
# [7] = target: Neu5Ac(a2-3)Gal(b1-3)GalNAc6S
# Summary of the method: as §1
# [8] = target: Neu5Ac(a2-3)Gal(b1-3)GlcNAc
# Summary of the method: as §1
# [9] = target: Neu5Ac(a2-3)Gal(b1-3)GlcNAc(b1-2)Man
# Summary of the method: as §1
# [10] = target: Neu5Ac(a2-3)Gal(b1-3)GlcNAc(b1-2)Man(a1-3)[GlcNAc(b1-4)][Neu5Ac(a2-3)Gal(b1-3)GlcNAc(b1-2)Man(a1-6)]Man(b1-4)GlcNAc(b1-4)GlcNAc
# Summary of the method: as §1
# [11] = target: Neu5Ac(a2-3)Gal(b1-3)GlcNAc(b1-2)Man(a1-3)[Neu5Ac(a2-3)Gal(b1-3)GlcNAc(b1-2)Man(a1-6)]Man(b1-4)GlcNAc(b1-4)GlcNAc
# Summary of the method: as §1
# [12] = target: Neu5Ac(a2-3)Gal(b1-3)GlcNAc(b1-2)[Neu5Ac(a2-3)Gal(b1-3)GlcNAc(b1-4)]Man(a1-6)[Neu5Ac(a2-3)Gal(b1-3)GlcNAc(b1-2)Man(a1-3)]Man(b1-4)GlcNAc(b1-4)GlcNAc
# Summary of the method: as §1
# [13] = target: Neu5Ac(a2-3)Gal(b1-3)GlcNAc(b1-3)Gal(b1-3)GlcNAc
# Summary of the method: as §1
# [14] = target: Neu5Ac(a2-3)Gal(b1-3)GlcNAc(b1-3)Gal(b1-4)GlcNAc
# Summary of the method: as §1
# [15] = target: Neu5Ac(a2-3)Gal(b1-3)GlcNAc(b1-3)GalNAc
# Summary of the method: as §1
# [16] = target: Neu5Ac(a2-3)Gal(b1-3)GlcNAc(b1-4)Gal(b1-4)Glc
# Summary of the method: as §1
# [17] = target: Neu5Ac(a2-3)Gal(b1-3)GlcNAc(b1-6)GalNAc
# Summary of the method: as §1
# [18] = target: Neu5Ac(a2-3)Gal(b1-3)GlcNAc6S
# Summary of the method: as §1
# [19] = target: Neu5Ac(a2-3)Gal(b1-3)[Fuc(a1-4)]GlcNAc
# Summary of the method: as §1
# [20] = target: Neu5Ac(a2-3)Gal(b1-3)[Fuc(a1-4)]GlcNAc(b1-3)Gal(b1-3)[Fuc(a1-4)]GlcNAc
# Summary of the method: as §1
# [21] = target: Neu5Ac(a2-3)Gal(b1-3)[Fuc(a1-4)]GlcNAc(b1-3)Gal(b1-4)[Fuc(a1-3)]GlcNAc
# Summary of the method: as §1
# [22] = target: Neu5Ac(a2-3)Gal(b1-3)[GlcNAc(b1-6)]GalNAc
# Summary of the method: as §1
# [23] = target: Neu5Ac(a2-3)Gal(b1-3)[Neu5Ac(a2-3)Gal(b1-4)]GlcNAc
# Summary of the method: as §1
# [24] = target: Neu5Ac(a2-3)Gal(b1-3)[Neu5Ac(a2-6)]GalNAc
# Summary of the method: as §1
# [25] = target: Neu5Ac(a2-3)Gal(b1-3)[Neu5Ac(a2-6)]GlcNAc(b1-3)[Fuc(a1-3)[Gal(b1-4)]GlcNAc(b1-6)]Gal(b1-4)Glc
# Summary of the method: as §1
# [26] = target: Neu5Ac(a2-3)Gal(b1-3)]Neu5Ac(a2-3)Gal(b1-4)]GlcNAc
# Summary of the method: as §1
binder,measurement,setting,value
B1,glycan array binding signal (z-score),[1],-0.14
same,glycan array binding signal (z-score),Man(a1-6)Man,-0.121
same,glycan array binding signal (z-score),Man(b1-4)GlcNAc,-0.12
same,glycan array binding signal (z-score),MurNAc(b1-4)GlcNAc,-0.15
same,glycan array binding signal (z-score),Neu5Ac(a2-3)Gal,-0.115
same,glycan array binding signal (z-score),[2],-0.08
same,glycan array binding signal (z-score),[3],-0.112
same,glycan array binding signal (z-score),[4],-0.093
same,glycan array binding signal (z-score),[5],3.76
same,glycan array binding signal (z-score),[6],-0.114
same,glycan array binding signal (z-score),[7],-0.094
same,glycan array binding signal (z-score),[8],-0.056
same,glycan array binding signal (z-score),[9],0.123
same,glycan array binding signal (z-score),[10],-0.144
same,glycan array binding signal (z-score),[11],-0.134
same,glycan array binding signal (z-score),[12],-0.025
same,glycan array binding signal (z-score),[13],-0.109
same,glycan array binding signal (z-score),[14],-0.104
same,glycan array binding signal (z-score),[15],-0.12
same,glycan array binding signal (z-score),[16],-0.179
same,glycan array binding signal (z-score),[17],0.823
same,glycan array binding signal (z-score),[18],-0.104
same,glycan array binding signal (z-score),[19],-0.117
same,glycan array binding signal (z-score),[20],-0.121
same,glycan array binding signal (z-score),[21],-0.066
same,glycan array binding signal (z-score),[22],-0.159
same,glycan array binding signal (z-score),[23],2.46
same,glycan array binding signal (z-score),[24],0.27
same,glycan array binding signal (z-score),[25],-0.102
same,glycan array binding signal (z-score),[26],3.65
